# According to PubChem BioAssay AID588342 (National Center for Advancing Translational Sciences (NCATS), 2011):
# “And” between values parts separate entries of the source, which are not always exact repeats. Identical values can stand only once. The whole screen tested about 360,000 compounds, of which about 25,000 (6.9%) were called active. The shares of active, inactive and inconclusive entries below differ from those in the screen. The call rests on the fitted dose curve; in most records, active means well fitted inhibition curve with a large enough effect; inconclusive means small, poorly fitted or top-dose-only effect; inactive means flat fitted curve, though single readings scatter. Potencies beside an inconclusive call are fits to weak or partial responses and may not hold up.
# Molecular target: Luciferin 4-monooxygenase (Photinus pyralis) (UniProt P08659)
# UniProt P08659, sequence (P08659 whole entry, looked up): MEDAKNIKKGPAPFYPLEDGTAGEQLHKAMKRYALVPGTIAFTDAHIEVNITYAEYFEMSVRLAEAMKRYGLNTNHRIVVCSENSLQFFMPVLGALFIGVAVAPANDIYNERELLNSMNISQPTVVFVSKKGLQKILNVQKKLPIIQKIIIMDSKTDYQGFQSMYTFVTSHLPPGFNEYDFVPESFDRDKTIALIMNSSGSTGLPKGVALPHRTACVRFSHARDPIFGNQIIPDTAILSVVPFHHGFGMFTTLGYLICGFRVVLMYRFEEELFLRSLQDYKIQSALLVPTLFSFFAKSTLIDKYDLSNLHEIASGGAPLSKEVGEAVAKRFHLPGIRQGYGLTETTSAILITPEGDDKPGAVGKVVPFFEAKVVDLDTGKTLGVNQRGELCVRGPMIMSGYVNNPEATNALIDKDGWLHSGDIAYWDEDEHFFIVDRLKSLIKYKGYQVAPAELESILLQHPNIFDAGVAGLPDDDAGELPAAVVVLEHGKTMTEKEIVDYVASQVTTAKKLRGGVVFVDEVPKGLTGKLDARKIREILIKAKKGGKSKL
# Assay: qHTS profiling assay for firefly luciferase inhibitor/activator using purifed enzyme and Km concentrations of substrates (counterscreen for miR-21 project); further: nearly all actives have a fitted effect of over 55% in size;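 on activity change, negative = inhibition: plate controls were vehicle for no effect and reference inhibitor for full effect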
# Conditions: purified FLuc, luminescence inhibition; series mostly up to 57.5 µM; activity change, negative = inhibition: at the top concentration
# Summary of the method: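 Purified P. pyralis luciferase (10nM final) with 10uM D-luciferin and 10uM ATP (Km levels) in 50mM Tris acetate pH 7.5, 10mM Mg acetate, 0.01% Tween-20, 0.05% BSA; qHTS 6-point titration, ~60 µM downward; luminescence read.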
# Potency means the concentration at half of the fitted maximal effect; tags describe the fitted curve by direction and shape.
Compound,Potency,"activity change, negative = inhibition"
O=C(CN1CCCCC1)NC(=O)Nc1ccccc1F,"inconclusive: 23.9 µM [inhibitor, single point]",–
C/C(=N\NC(=O)c1cc(C(C)C)[nH]n1)c1ccncc1,"inconclusive: 26.9 µM [inhibitor, partial curve, poor fit]",–
NC(=O)c1ccc(-c2ccccc2F)cc1,"inconclusive: 26.9 µM [inhibitor, single point]",–
O=C(CSc1nc(-c2ccccc2)ns1)N1CCOCC1,"inconclusive: 21.3 µM [inhibitor, single point]",–
CCc1ccc(NC(=O)c2cnc(N3CCN(c4ccccn4)CC3)c3ccccc23)cc1,"inconclusive: 7.57 µM [inhibitor, full curve]",–
Cc1ccc(S(=O)(=O)Cn2nnnc2C(C(C)C)N2CCC(C(N)=O)CC2)cc1 (configuration not stated),–,inactive: -0.524%
CCN1CCc2c(sc(NC(=S)NC(=O)c3ccco3)c2C(N)=O)C1,"inconclusive: 37.9 µM [inhibitor, partial curve, poor fit]",–
CCOc1ccccc1NC(=O)C(=O)c1cc(C)n(-c2cccc(C)c2C)c1C,–,inactive: -2.38%
Cc1ccc(N/N=C(\C#N)C(N)=S)c(C)c1,"inconclusive: 26.9 µM [inhibitor, partial curve]",–
COc1ccc(C2CC(=O)N3CN(c4ccc(C)c(Cl)c4)CSC3=C2C#N)cc1OC (configuration not stated),"inconclusive: 26.9 µM [inhibitor, single point]",–
Cc1cc([N+](=O)[O-])ccc1N1C(=O)c2ccc(C(=O)Nc3ccccc3C(=O)O)cc2C1=O,"inconclusive: 21.3 µM [inhibitor, partial curve, poor fit]",–
CC1(C)CC(=O)C2=C(C1)O[C@@]1(CCCCN3C(=O)c4ccccc4C3=O)Cc3cc(C#N)ccc3C2O1,–,inactive: -0.751% [at 11.5 µM]
CCCCN(CC)C(=S)Nc1ccc2nc(N3CCN(C)CC3)cc(C)c2c1,"inconclusive: 19 µM [inhibitor, single point]",–
CCOc1ccc(CCNC(=O)c2cccc(S(=O)(=O)N3CCN(C(C)=O)CC3)c2)cc1OCC,–,inactive: 1.23%
COc1ccccc1C(=O)Nc1cccc(OCc2cc(=O)n3c(C)csc3n2)c1,"inconclusive: 5.36 µM [inhibitor, full curve]",–
Cc1nnc(SCC(=O)Nc2cccc(S(=O)(=O)N(C)c3ccccc3)c2)s1,"inconclusive: 37.9 µM [inhibitor, partial curve, poor fit]",–
Cc1cccnc1NC(=O)c1ccc2nc(N)sc2c1,"inconclusive: 37.9 µM [inhibitor, partial curve, poor fit]",–
COc1ccc(CNc2cccc(C)n2)c(O)c1,"inconclusive: 37.9 µM [inhibitor, single point]",–
Cc1ccccc1CN1C(=O)c2ccccc2Sc2ccc(C(=O)O)cc21,"inconclusive: 33.8 µM [inhibitor, single point] and inconclusive: 23.9 µM [inhibitor, partial curve]",–
COc1ccc(/C=C2\SC(N)=NC2=O)cc1,active: 15.1 µM,–
CSc1ccc(/C=N\Nc2nncn2N)cc1,"inconclusive: 26.9 µM [inhibitor, single point]",–

Compound,Potency,"activity change, negative = inhibition"
Cc1ccc(NC(=O)C2CCCN(c3cnccn3)C2)cc1Cl (configuration not stated),–,inactive: -2.57%
O=c1[nH]c(CSc2ncc(C(F)(F)F)cc2Cl)nc2ccccc12,"inconclusive: 37.9 µM [inhibitor, partial curve, poor fit]",–
S=c1nc(-c2ccccc2)oc2c1CCCC2,active: 13.5 µM,–
O=S(=O)(c1cccc(-c2csc(N/N=C/c3ccco3)n2)c1)N1CCOCC1,"inconclusive: 15.1 µM [inhibitor, partial curve]",–
COc1ccc(NC(=O)COC(=O)c2c3c(nc4ccccc24)CCCC3)cc1,"inconclusive: 19 µM [inhibitor, partial curve]",–
CC(C)c1ccc(CNc2nc3nc4c(c(=O)n3[nH]2)CCC4)cc1,"inconclusive: 21.3 µM [inhibitor, partial curve, poor fit]",–
Cc1[nH]nc(SCC(=O)NC2CCCCC2)c1[N+](=O)[O-],"inconclusive: 15.1 µM [inhibitor, partial curve]",–
C=CCNC(=O)c1ccccc1NC(=O)c1ccc(Cl)c(S(=O)(=O)Nc2cccc(C)c2C)c1,–,inactive: 3.15%
Cc1ccc(-n2ncc3c(N4CCC(Cc5ccccc5)CC4)ncnc32)cc1C,–,inactive: -2.06%
Cc1cccc(NC(=O)CCNS(=O)(=O)c2ccc3c(c2)CCN3C(=O)C2CC2)c1,–,inactive: 5.11%
CCOc1ccc(-c2cc(CCCC(=O)NCCc3cc(OC)c(OC)c(OC)c3)no2)cc1,active: 13.5 µM,–
CSc1ccccc1NC(=O)c1cc(-c2ccco2)on1,"inconclusive: 9.53 µM [inhibitor, partial curve, poor fit]",–
CCOc1ccc(NC(=O)c2ccc(Cn3nc(C)cc3C)o2)cc1,"inconclusive: 23.9 µM [inhibitor, single point]",–
COc1ccc(CCNC(=O)CCCn2nc(C)c3sc4ccccc4c3c2=O)c(OC)c1,"inconclusive: 26.9 µM [inhibitor, partial curve, poor fit]",–
O=C(Nc1ccc(Nc2ccccc2)cc1)C(Cl)Cl,"inconclusive: 23.9 µM [inhibitor, single point]",–
CCOc1cc(/C=C2\SC(=S)N(NS(=O)(=O)c3ccccc3)C2=O)ccc1O,"inconclusive: 23.9 µM [inhibitor, single point]",–
CC(=O)/C=C/c1ccc2ccccc2n1,"inconclusive: 15.1 µM [inhibitor, partial curve]",–
Cc1ccc(C(=O)Oc2cc(-c3ccc4c(c3)OCO4)cc(=O)c3c(C)oc(C)c23)cc1,"inconclusive: 30.1 µM [inhibitor, partial curve, poor fit]",–
CN(/N=C/c1ccc(Cl)cc1)c1ncc(Cl)cc1C(F)(F)F,"inconclusive: 26.9 µM [inhibitor, partial curve, poor fit]",–
Cc1ccc(NC(=O)/C=C2\NC(=O)CS2)cc1,active: 7.57 µM,–
CC(=O)c1ccc(NS(=O)(=O)c2ccc(-n3cccn3)cc2)cc1,"inconclusive: 23.9 µM [inhibitor, partial curve, poor fit]",–
